According to the supplement of paper PMC10338343:
± gives the standard deviation. This is a selection; strong and weak results do not stand in their true shares.

system: MIWI (PIWIL1) piRISC loaded with piRNA #1 (30 nt); assay: pre-steady-state target cleavage rate (min^-1); MIWI and MILI are mouse PIWI proteins and EfPiwi is from a freshwater sponge; tags in brackets are library labels; higher = faster piRNA-guided slicing of the target; conditions: guide: piRNA #1 5'p-UGAGGUAGUAGGUUGUAUAGUAUCCAGAGG; auxiliary factor: 500 nM mouse GTSF1
Summary of the method: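 The pre-steady-state cleavage rate was obtained by Cleave-'n-Seq with a burst-and-steady-state fit. A transcribed, DNA-blocked target RNA library (0.1 nM) was mixed with 1 nM active affinity-purified piRISC carrying one synthetic guide, with or without 500 nM GTSF1 partner protein, in HEPES–potassium acetate buffer at 33 °C for 0–8 or 0–960 min. Uncleaved targets were sequenced and normalised to depth and to weakly complementary targets, with three trials pooled and k3 capped at 0.0001 min^-1.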

Point of comparison: GGAGACCAUACUAUACAACCUUCUAGCUCA, “pre-steady-state target cleavage rate” value 0.167 ± 0.027. Against it:
- GGAGACCUAUCUGAUACAACCUACUACCUCA — lower, 0.042 ± 0.012
- GGAGAGGAUACUACUACAACCUACUACCUCA — higher, 1.22 ± 0.074
- GCUCUGGAUACUAUACCACCUACUACCUCA — higher, 1.62 ± 0.093
- GGUCUCGAUACUAUACAACCUACUACCACA — higher, 0.758 ± 0.064
- GCUCUCGAUACUAUACUACCUACUACCUCA — higher, 1.48 ± 0.088
- GGAGAGGAAACUAUACAACCUACUUCCUCA — within error, 0.294 ± 0.15
- GGAGACCAUACUAUACAAGCUACUACCUGA — higher, 0.709 ± 0.042
- GGAGUGGAUACUAUACUACCUAGUACCUCA — higher, 0.283 ± 0.04
- GCUGUGGAUACUAUACAACCUACAACCUCA — higher, 0.288 ± 0.045
- GGAGAGGAUACUAUACAACCUACUACGUGA — lower, 0.0459 ± 0.0097
- GGAGUGGAUACAUAUACAACCUACUACCUCA — higher, 1.31 ± 0.081
- GGAGACCUAUCUAUACAACCUACUAGCCUCA — higher, 0.538 ± 0.055
- GGAGACCUAUGUAUACAACCUAUUACCUCA — lower, 0.0261 ± 0.005
- GCUCUGGAUGCUAUACAACCUACUACCUCA — higher, 1.93 ± 0.15
- GGAGUGGAUACUUACAACCUACUACCUCA — higher, 0.879 ± 0.096
- CCUCUGGAUACUAUACAACCUACGACCUCA — higher, 1.37 ± 0.093
- GGAGACCUAUGUAUACAACCUACUACAUCA — higher, 0.241 ± 0.028
- GCUCUGGAUACUAUACAACCUACUCCUCA — lower, 0.0332 ± 0.01
- GGAGACCUAUCUUUUCAACCUACUACCUCA — lower, 0.0982 ± 0.032
- CCUCUGGAUACUAUUCAACCUACUACCUCA — higher, 1.87 ± 0.12
- GGAGUGGAUUCUAUACAACCUUCUACCUCA — higher, 0.697 ± 0.037
- GGAGACGAUACUAUACAACCUUCUACCACA — higher, 0.431 ± 0.025
- CCUCUGGUUACUAUACAUCCUACUACCUCA — higher, 1.5 ± 0.066
- GGAGACGAUACUAUCCAACCUACUACCUCA — higher, 1.45 ± 0.08
- GGAGAGCAUACUAUACAACCUUCUACCUCA — higher, 0.636 ± 0.034
- CCUCUGGAUACUAUACAACCUACUAGGUCA — lower, 0.095 ± 0.02
- GGAGACCAUUGUAUACAACCUACUACCUCA — within error, 0.121 ± 0.024
- GGAGAGGAUACUUUACAACCUACUAGCUCA — within error, 0.242 ± 0.058
- GGAGACCUAUCUAUACAACCUACUACGACA — within error, 0.206 ± 0.026
- GGAGACCUAACUAAUCAACCUACUACCUCA — lower, 0.0103 ± 0.0055
- GGACUGGAUAGUAUACAACCUACUUCCUCA — lower, 0.0611 ± 0.015
- GGAGUGGAUAGCUAUACAACCUACUACCUCA — higher, 0.695 ± 0.044
- GGAGACCUAAGUAUACAACCUACUACCACA — within error, 0.17 ± 0.05
- GGAGUGGAUACAAUACAACCAACUACCUCA — lower, 0.116 ± 0.011
- GGAGUGGAUACUAUUCUACCUACUACCUCA — higher, 1.04 ± 0.11
- GCUCUGGAUACUAUACAACCUACUACGCUCA — higher, 1.66 ± 0.1
- GGACUGGAUUCUAUACAACCUACUACCACA — higher, 0.861 ± 0.07
- GGAGACGAUACUAUACAACCUACUUGCUCA — higher, 0.464 ± 0.11
- GGAGACCAUAGUAUACAACCUACUUCCUCA — within error, 0.153 ± 0.028
